Measurements as given in paper PMC4336329 (PLoS ONE, 2015).
Out of some 310,000 compounds screened, about 2,200 (0.71%) showed an effect of 50% or more. The effect is printed as a negative number. The list shows a part of the results.

These compounds were tested against human ether-à-go-go-related gene (hERG) potassium channel (human, UniProt Q12809) (assay: primary screen, population patch clamp on CHO cells stably expressing hERG).
Chain of human ether-à-go-go-related gene (hERG) potassium channel (Q12809 whole entry, looked up): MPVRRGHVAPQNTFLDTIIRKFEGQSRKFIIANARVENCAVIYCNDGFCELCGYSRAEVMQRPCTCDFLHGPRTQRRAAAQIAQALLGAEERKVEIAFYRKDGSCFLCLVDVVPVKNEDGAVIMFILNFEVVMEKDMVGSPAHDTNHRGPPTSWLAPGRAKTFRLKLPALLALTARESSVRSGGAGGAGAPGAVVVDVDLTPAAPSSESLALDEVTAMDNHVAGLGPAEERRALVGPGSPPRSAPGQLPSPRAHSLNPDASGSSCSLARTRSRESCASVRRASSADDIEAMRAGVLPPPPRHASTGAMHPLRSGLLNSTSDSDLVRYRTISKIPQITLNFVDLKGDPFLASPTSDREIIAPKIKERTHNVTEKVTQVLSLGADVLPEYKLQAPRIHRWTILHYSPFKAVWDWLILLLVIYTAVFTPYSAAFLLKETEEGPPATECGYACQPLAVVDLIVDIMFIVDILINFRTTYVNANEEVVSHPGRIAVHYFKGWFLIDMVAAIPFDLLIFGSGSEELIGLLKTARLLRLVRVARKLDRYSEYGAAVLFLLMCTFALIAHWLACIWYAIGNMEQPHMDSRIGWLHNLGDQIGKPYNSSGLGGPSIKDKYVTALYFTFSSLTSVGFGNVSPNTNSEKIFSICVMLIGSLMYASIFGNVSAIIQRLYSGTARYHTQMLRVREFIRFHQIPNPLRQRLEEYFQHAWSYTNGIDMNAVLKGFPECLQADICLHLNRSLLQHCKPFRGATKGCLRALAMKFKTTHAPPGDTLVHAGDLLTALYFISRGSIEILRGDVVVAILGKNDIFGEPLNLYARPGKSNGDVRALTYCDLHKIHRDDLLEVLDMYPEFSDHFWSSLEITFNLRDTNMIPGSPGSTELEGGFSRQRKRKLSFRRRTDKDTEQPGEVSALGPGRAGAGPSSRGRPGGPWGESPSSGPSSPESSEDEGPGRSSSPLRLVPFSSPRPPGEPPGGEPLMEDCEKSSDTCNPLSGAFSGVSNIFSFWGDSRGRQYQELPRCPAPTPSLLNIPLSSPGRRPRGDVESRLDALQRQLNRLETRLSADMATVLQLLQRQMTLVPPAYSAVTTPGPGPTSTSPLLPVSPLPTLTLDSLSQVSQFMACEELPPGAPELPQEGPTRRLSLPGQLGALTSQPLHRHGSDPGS

Structure (SMILES) | hERG current change (%, negative = inhibition) at 1uM
COc1ccc(CC(=O)NNC(=O)Cc2ccc(OC)cc2)cc1 | 18.4%
Cc1ccccc1C(=O)NCC(=O)OCCCOC(=O)CNC(=O)c1ccccc1C | 16.1%
COCCN(C(=O)COC(=O)c1cccc2ccccc12)c1c(N)n(Cc2ccccc2)c(=O)[nH]c1=O | 0.926%
CCCCOc1ccc(/C(O)=C2/C(=O)C(=O)N(CCCOC)C2c2ccncc2)cc1C (centres unmarked) | 5.21%
S=c1nc(-c2ccccc2Br)[nH][nH]1 | 14.4%
COC(=O)c1cc(Br)cn1S(=O)(=O)c1ccccc1 | 8.38%
Cc1cc2cc(CNC(=O)c3ccc(S(=O)(=O)N4CCOCC4)cc3)ccc2n1C | 14.9%
CCCCn1c(N)c(N(CC)C(=O)c2ccc(C#N)cc2)c(=O)[nH]c1=O | 14.4%
COC(=O)C1CCN(C(=O)c2ccccc2NC(C)=O)CC1 | 13.7%
Cn1c(=O)c2ncn(CC(=O)Nc3ccc4c5c(cccc35)CC4)c2n(C)c1=O | 7.27%
Cc1c(-c2ccccc2)oc2c(C(=O)OCC(=O)Nc3cccc(F)c3)cccc2c1=O | 5.94%
C=CCn1c(SCC(=O)Nc2ccc3c(c2)OCO3)nnc1-c1ccccc1OC | 3.27%
O=C(NC1CCSC1=O)C1CC(=O)N(c2ccc(F)cc2)C1 (centres unmarked) | 10.9%
CC(CCc1ccccc1)NCc1cccc2ccccc12.O=C(O)C(=O)O (centres unmarked) | -7.56%
Cc1cccc(/C(N)=N/OC(=O)Cc2cccc3ccccc23)c1 | 2.71%
CC(=O)NC(Cc1ccccc1)Cc1ccccc1 | 16%
Nc1nnn(CC(=O)N/N=C/c2ccncc2)n1 | 11.4%
CCOC(=O)N1CCC(N2CCCC(C(=O)c3ccc4cc(OC)ccc4c3)C2)CC1 (centres unmarked) | -55.1%
CC1CCN(CC(=O)N2CCc3ccccc32)CC1 | 13.4%
Cc1ccc(C(=O)c2nc3c(n2O)CCCC3)cc1 | 0.101%
Cc1ccccc1NC(=O)COC(=O)c1cc[n+]([O-])cc1 | -3.27%
O=S(=O)(c1ccc(Cl)cc1)N1CCCCC1c1cccnc1 (centres unmarked) | -3.3%

Structure (SMILES) | hERG current change (%, negative = inhibition) at 1uM
Cc1cccc(-n2c(O)c(C=Nc3ccccc3-c3n[nH]c(=S)[nH]c3=O)c3ccccc3c2=O)n1 | -5.25%
COc1ccc(-c2csc(NCCc3nc4cc(Cl)c(Cl)cc4n3CCCO)n2)cc1 | 7.25%
CCn1c(=O)c2cc(C(=O)NC(C)C)sc2c2ccccc21 | 6.27%
CCOC(=O)c1c(NC(=O)CSc2nnc(CNc3ccc(F)cc3)o2)sc(C(C)=O)c1C | 8.34%
Cc1ccc(NC(=O)/C=C/c2ccc(Cl)cc2)nc1 | 21.4%
CC(C)c1c(O)nc(SCCC(=O)O)[nH]c1=O | 3.76%
Cc1cc(/C(N)=N/OC(=O)c2ccccc2Cl)no1 | 5.21%
COc1ccc(C(=O)CSc2nnc(CNc3ccc(C)cc3C)n2Cc2ccco2)cc1 | 8.09%
COc1ccc(C(=O)NCCc2ccc(Cl)cc2)cc1S(=O)(=O)N1CCCCC1C (centres unmarked) | -19.2%
Cc1cc(NC(=O)COc2nnc(-c3ccccc3)c3ccccc23)no1 | 6.52%
COc1cccc(NC(=O)CS(=O)(=O)Cc2nc(-c3ccc(C)cc3)oc2C)c1 | 11.5%
COCCN(C(=O)C1=COCCO1)c1c(N)n(CC(C)C)c(=O)[nH]c1=O | 4.31%
CC(=O)Nc1ccc(NC(=O)C(C)OC(=O)/C=C/c2cnc3ccccc3n2)cc1 (centres unmarked) | 5.5%
O=C1C2C3c4ccccc4C(c4ccccc43)C2C(=O)N1c1cccc2cccnc12 (centres unmarked) | 7.48%
O=C(c1ccco1)N1CCN(C2CC(=O)N(c3ccc4c(c3)OCO4)C2=O)CC1 (centres unmarked) | -3.02%
O=S(=O)(Nc1nc2ccccc2nc1-[n+]1cccc(N=C([O-])c2ccccc2Cl)c1)c1ccccc1 | 12.3%
COc1ccc(CCN(C)C(=O)CSc2nnc(C3CC3)n2N)cc1OC | -8.93%
CC1=C(C(=O)N2CCOCC2)C(c2ccsc2)C2=C(CCCC2=O)N1 (centres unmarked) | 1.98%
Cc1ccc(OCc2ccc(C(=O)NNC(=S)NCC3CCCO3)o2)c([N+](=O)[O-])c1 (centres unmarked) | -3.39%
Cc1[nH]n(-c2ccc([N+](=O)[O-])cc2)c(=O)c1C=NCC1CCCO1 (centres unmarked) | 7.67%
CC(C)C(c1nnnn1C(C)(C)C)N1CCN(Cc2cccnc2)CC1.Cl (centres unmarked) | 9.26%
Cc1[nH]n2c(=O)cc(-c3ccc([N+](=O)[O-])cc3)nc2c1-c1ccccc1 | 5.66%
